Data: PubChem BioAssay (NCI)
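Test compounds were applied to cells in 96-well plates for 48 hours at 5 doses. Here, GI50 denotes the concentration required for 50% inhibition of growth. TGI is the concentration that stops growth completely.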

test system: NCI-H322M lung; assay: NCI-60 cell line screen, 48 h

| Structure (SMILES) | GI50 [nM] | TGI [µM] |
| --- | --- | --- |
| O=C(CC1(O)C(=O)Nc2ccc(Cl)cc21)c1ccc(C(=O)NCC2CCC3(CC2)OOC2(CCCCC2)OO3)cc1 (stereo unspecified) | 13100 | 31.5 |
| CCCCCn1sc(=O)n(Cc2ccc(CNC(=O)C(C)c3ccc(CC(C)C)cc3)cc2)c1=O (stereo unspecified) | 1610 | 3.17 |
| Cc1cc2c3ccccc3n3c2c2c1OC1(C)CCC(C2C1)C3(C)C (stereo unspecified) |  | > 25 |
| CNC(=O)OC1/C(C)=C\C(C)C(O)C(OC)CC(C)CC2=C(OC)C(=O)C=C(C2=O)N(C)C(=O)/C(C)=C/C=C\C1OC (stereo unspecified) | < 100 | 46.2 |
| O=c1[nH]nc(-c2cccc([N+](=O)[O-])c2)[nH]1 |  | > 100 |
| CC(=O)OC1(C(C)=O)CC2(c3ccccc3)OC1(c1ccccc1)c1ccccc12 (stereo unspecified) |  | > 100 |
| COc1cc(/C=N\Nc2ccccc2)ccc1OC(=O)c1ccccc1 | 21200 | > 100 |
| O=C(c1ccccc1)c1nn(-c2cccc(Cl)c2)c2nc3nc(-c4ccccc4)cc(=O)n3nc12 | 860 | > 25 |
| ClC/C=C/CSc1ncnc2nc[nH]c12 | > 100000 | > 100 |
| CCCCCCCC(=O)NC(C)(C)C(=O)NCC(=O)NC(CC(C)C)C(=O)NC(C)(C)C(=O)NCC(=O)NCC(=O)NC(CC(C)C)C(=O)NC(C)(C)C(=O)NCC(=O)NC(C(=O)NC(CO)CC(C)C)C(C)CC (stereo unspecified) |  | 7.58 |
| COc1ccccc1NC(=O)c1sc2ncn(CCOc3ccccc3)c(=O)c2c1C | > 50000 | > 50 |
| COc1cc2c3c(c4ccc(O)cc4c2cc1OC)[C@@H](O)[C@@H]1CCCN1C3 |  | < 0.001 |
| O=C(CC(C(=O)c1ccsc1)c1cccs1)c1cccs1 (stereo unspecified) |  | > 100 |
| N#Cc1cnn(C(=O)c2nn(-c3ccc(Cl)cc3)cc2O)c1N | 439 | 46.6 |
| O=C(CC1(O)C(=O)Nc2ccccc21)c1cccc(O)c1 (stereo unspecified) |  | > 100 |
| C=C1C(=O)C23C(O)CC4C(C)(C)CCC(O)C4(C)C2CC(OC(C)=O)C1[C@H]3O (stereo partly specified) |  | 23.1 |
| O=C(O)CCCCCNCc1cc2cc3c(cc2c2cc(OCc4ccccc4)ccc12)OCO3 | 2130 | 4.82 |
| N#Cc1ccc2c(-c3ccnc(NC4CC4)n3)c(-c3ccc(F)cc3)nn2c1 | > 25000 | > 25 |
| CC(NC(CC12CC3CC(CC(C3)C1)C2)C(N)=O)c1ccccc1 (stereo unspecified) |  | > 100 |
| O=C1CC2(CCN(Cc3ccccc3)CC2)C(=O)N1N1CCCCC1 |  | > 100 |
| N#Cc1sc2nc3c(c(-c4ccccc4)c2c1N)CCCC3 |  | > 100 |
| COc1ccc(/C=C(\C#N)c2ccccn2)cc1OC |  | > 100 |
| COc1cc(C2c3cc4c(cc3[C@@H](Nc3ccc(F)cc3)C3COC(=O)[C@H]23)OCO4)cc(OC)c1O (stereo partly specified) |  | 72.9 |
| CCOC(=O)C(=O)CC(=O)C(Br)C(Br)c1ccc(Cl)cc1 (stereo unspecified) |  | > 100 |
| Cc1ccc2nc(CN(CCN(Cc3nc4ccc(C)cc4[nH]3)Cc3nc4ccc(C)cc4[nH]3)Cc3nc4ccc(C)cc4[nH]3)[nH]c2c1 | 1200 | 2.43 |
